# Assay results published in PubChem BioAssay AID1508623 (National Center for Advancing Translational Sciences (NCATS), 2021).
# Screen size: about 48,000 compounds; about 450 (0.94%) were called active. About 19% were inconclusive and are not listed. Calls come from the whole dose curve; as a rule, active = well fitted inhibition curve with a large enough effect; inconclusive = small, poorly fitted or top-dose-only effect; inactive = no such curve, though single readings can be large or run the other way. Some of the results follow.
# Test: Primary qHTS for Identification of Small Molecule Inhibitors of Huntingtin Promoter Activity; note: nearly all actives have a fitted effect of over 50% in size
# Conditions: HEK293 HTT promoter firefly luciferase reporter (activity 0% = vehicle and -100% = no light), 24 h; series mostly up to 57.5 µM; activity change, negative = inhibition: at the top concentration
# Outline: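 Luminescence was read after Dual-Glo reagent and a 10 min room-temperature incubation. Values were normalized to vehicle (0% activity) and zero RLU (-100% activity). Reporter HEK293 cells had been exposed to compounds (up to 57.5 uM final) for 24 h.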
# Potency is the fitted concentration of half-maximal effect.
Compound,"activity change, negative = inhibition",Potency
Cc1ccccc1NC(=O)Cn1nnc(C(=O)NCc2cccs2)c1N,inactive: -31.8%,
CCc1ccc(NS(=O)(=O)c2ccc(NC(=O)N3CCCC3)cc2)cc1,inactive: -27.6%,
Cc1ccc(CSc2nc3cc(C(=O)NC4CCCC4)ccc3c(=O)n2Cc2ccccc2)cc1,inactive: 2.98%,
CC(CNC(=O)c1csc2c1CCCCC2)c1ccccc1 (configuration not stated),inactive: 20.5%,
CCc1ccc(NC(=O)Cn2nnc(C(=O)Nc3ccc(F)cc3)c2N)cc1,inactive: 1.36%,
O=C(Nc1cccc(O)c1)c1cc(-c2ccccc2F)no1,inactive: 24.2%,
O=C(NCc1cccc(Cl)c1)c1ccc2c(Cl)c3c(nc2c1)CCCC3,inactive: -12.4%,
COc1cc(NC(=O)c2cc(S(=O)(=O)N3CCC(C)CC3)cn2C)cc(OC)c1OC,inactive: -7.76%,
CCOC(=O)C1CCCN(C(=O)Cn2ncc3c4ccccc4n(C)c3c2=O)C1 (configuration not stated),inactive: 8.17%,
O=C(CSc1ncc(CO)n1Cc1ccc(F)cc1)NCc1ccco1,inactive: 0.616%,
COc1cc(O)ccc1-c1nc2cc(C)ccn2c1Nc1ccccc1C,inactive: -30.9%,
Cc1cccc2c(=O)cc(CSc3ccccc3NC(=O)c3cccc(Br)c3)[nH]c12,inactive: -8.54%,
O=C(Nc1cccc(F)c1)C1CCN(S(=O)(=O)c2ccc3[nH]c4c(c3c2)CCCCC4)CC1,,active: 25.1 µM
COc1ccc(NC(=O)CSc2nc3nc(C)cc(C)n3n2)cc1OC,inactive: -18.4%,
COC(=O)C1=C(C)NC(C)=C(C(=O)OCC(C)=O)C1c1ccccc1[N+](=O)[O-] (configuration not stated),inactive: 9.1%,
Fc1ccc(C(c2ccc(F)cc2)N2CCN(C/C=C/c3ccccc3)CC2)cc1,inactive: -19.1%,
CCOc1ccccc1NC(=O)NCc1noc2ccc(C)cc12,inactive: -22.6%,
Cc1ccc(N2CC(C(=O)NCc3nnnn3-c3ccc(C)c(C)c3)CC2=O)cc1C (configuration not stated),inactive: 8.38%,
COc1cccc2c1cc1c(=O)n(CC(=O)NCc3ccc(N(C)C)cc3)nc(C)n12,inactive: -5.86%,
COc1cc(C(=O)NCC(c2ccc3c(c2)OCO3)N2CCN(C)CC2)cc(OC)c1OC (configuration not stated),inactive: -4.29%,
CC(C)c1ccc2oc(-c3cc(NC(=O)c4cccnc4)ccc3Cl)nc2c1,inactive: -21.7% [at 11.5 µM],

Compound,"activity change, negative = inhibition",Potency
COc1cccc(NC(=O)c2sc3nc(C)c(C(=O)Nc4ccc(C)cc4C)c(-c4ccc(C)o4)c3c2N)c1,inactive: 9.07%,
CCC1CCCCN1CCCNC(=O)c1c(C)oc2ncn(CC(C)C)c(=O)c12 (configuration not stated),inactive: -13.1%,
O=c1n(Cc2ccc(Cl)cc2)nc2n1-c1ccccc1OC2,inactive: 2.74%,
O=C(CSc1nc2ccccc2nc1Cc1ccc(Cl)cc1)N1CCN(c2ccccc2F)CC1,inactive: -3.82%,
Cc1ccccc1OCC(=O)Nc1ccc2nc(SCCOc3ccccc3)sc2c1,inactive: 3.94%,
Cc1ccc(C)c(N2CCN(C(=O)CCCCCn3c(=O)[nH]c4ccccc4c3=O)CC2)c1,inactive: -23%,
Cc1ccc(-c2nnc(Nc3ccc(S(N)(=O)=O)cc3)c3ccccc23)cc1S(=O)(=O)N1CCOCC1,inactive: -5.53%,
CC(NC(=O)c1cccc(NC(=O)c2nsc3ccccc23)c1)c1ccccc1 (configuration not stated),inactive: 0.0404%,
COc1ccc2c(c1)Cc1sc(NC(=O)c3cccc(F)c3)nc1-2,inactive: 15.2%,
COc1ccc(C(=O)Nc2ccc3oc(-c4ccc(OC)cc4)nc3c2)cc1,inactive: 34.3%,
CCCC(=O)Nc1cc(-c2nc3cccnc3s2)ccc1C,inactive: 53.2%,
CCc1cccc(NC(c2nnc(-c3ccccc3)o2)c2ccc(F)cc2Cl)c1 (configuration not stated),inactive: -35.6%,
CC(=O)Nc1ccc(S(=O)(=O)NC2(C(F)(F)F)C(=O)Nc3c2c(=O)[nH]c(=O)n3-c2ccc(C)c(C)c2)cc1 (configuration not stated),inactive: -19.2% [at 11.5 µM],
CCOc1ccc(NS(=O)(=O)c2ccc3[nH]cc(C(=O)NC4CCCC4)c(=O)c3c2)cc1,inactive: -23.7%,
CCOc1ccc(C(=O)c2cn(Cc3ccc(OC)cc3)c3cc(OC)c(OC)cc3c2=O)cc1,inactive: -22.7%,
Cc1ccc(C(=O)CSc2nnc(-c3ccccc3)n2-c2ccccc2)cc1,inactive: -27.2%,
O=C(O)c1cc(O)c2c(c1)C(=O)c1cccc(O)c1C2=O,inactive: -10.3% [at 116 µM],
CCOc1ccc(NC(=O)CSc2ncc3c(n2)-c2cc(Cl)ccc2N(C)S3(=O)=O)cc1,inactive: -18.5%,
CC1=C(C(=O)NCc2ccc(C)cc2)C2(CCCCC2)OC1=O,inactive: -21.5%,
Cc1ccc(Nc2c(F)cccc2Cl)c(CC(=O)O)c1,inactive: 2.76%,
Cc1ccc2cccc(NC(=O)C(C)Oc3ccc(C)c(C)c3)c2n1 (configuration not stated),inactive: -24.6%,

Compound,"activity change, negative = inhibition",Potency
Cc1noc(Cn2c(=O)c3ccccc3n(CC(=O)Nc3ccc(Cl)cc3)c2=O)n1,inactive: -7.87%,
O=C(Nc1cc(Cl)ccc1Cl)C1(c2cccs2)CCOCC1,inactive: -11.5%,
COc1ccc(Nc2ncc(C(=O)Nc3cc(Cl)c(OC)cc3OC)c3ccccc23)cc1,inactive: -12.6%,
CN(C)c1ccc(C(CNS(=O)(=O)c2ccc(F)cc2)N2CCCC2)cc1 (configuration not stated),inactive: 0.603%,
O=c1c2cc3c(cc2n(Cc2cccc(Cl)c2)c(=O)n1Cc1nc(-c2ccccc2)no1)OCO3,inactive: -10.6%,
COc1ccc(NC(=O)CCNS(=O)(=O)c2cccc3nonc23)c(OC)c1,inactive: -7.47%,
COc1ccc(N2CCN(C(=O)c3ccc(Nc4nc5ccccc5n5nnnc45)cc3)CC2)cc1,inactive: 3.7%,
O=C(Nc1ncc(Cc2ccc(Cl)cc2)s1)c1ccc2c(c1)CC(c1ccccc1)OC2=O (configuration not stated),inactive: -9.41%,
COc1cccc(CNC(=O)CSc2nc3ccccc3nc2Cc2ccc(C)cc2)c1OC,inactive: -5.63%,
CCOC(=O)CNC(=O)c1cc2c(=O)n3cccc(C)c3nc2s1,inactive: 25.4%,
COc1cccc(C2CC(=O)Nc3c2c(=O)nc2c(C)cccn32)c1 (configuration not stated),inactive: -11.1%,
CCOc1ccccc1NC(=O)CSc1ncc(S(=O)(=O)c2ccc(C(C)(C)C)cc2)c(=O)[nH]1,inactive: -12.9%,
CCCCNC(=O)CCn1c(=O)c2cccn2c2ccc(F)cc21,inactive: -4.32%,
CCOC(=O)c1cc(-c2ccc(OC)c(S(=O)(=O)NC3CCCCC3)c2)on1,inactive: -7.03%,
CCCCN(CC)CCCNC(=O)CN1C(=O)CSc2ccc(S(=O)(=O)N3CCOCC3)cc21,inactive: -10.4%,
COc1ccc(CCNC(=O)CN2C(=O)COc3ccc(C)cc32)cc1OC,inactive: -18.1%,
CCN(C(=O)Cn1nc(Cc2ccncc2)c2ccccc2c1=O)c1cccc(Cl)c1,inactive: -4.51%,
COc1ccccc1N(CC(=O)N1CCC(C)CC1)S(=O)(=O)c1ccc(C)cc1,inactive: -16.1%,
c1ccc2sc(SSc3nc4ccccc4s3)nc2c1,inactive: 6.91% [at 25.2 µM],
COCCCNC(=O)c1c(-c2ccccc2)c(-c2ccccc2)nn(C)c1=O,inactive: -2.48%,
